# Measurements reported in the supplement of paper PMC4166925.
# ± gives the standard deviation of the averaged measurements. The full ranking holds about 33,000 sequences; the median of “E-score (dimensionless, -0.5 to 0.5)” is about -0.049, and the highest 2% start at about 0.37. The list shows a part of the results.
# Test system: T1, PmTbr T-box DNA-binding domain (GST fusion)
# T1 sequence: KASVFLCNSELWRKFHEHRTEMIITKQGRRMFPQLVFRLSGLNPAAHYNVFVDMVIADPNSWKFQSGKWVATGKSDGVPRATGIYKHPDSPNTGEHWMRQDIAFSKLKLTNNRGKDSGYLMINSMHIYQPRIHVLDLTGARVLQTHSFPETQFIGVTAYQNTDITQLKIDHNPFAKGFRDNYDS
# Experiment: PBM E-score of 8-mer (E-score (dimensionless, -0.5 to 0.5)); Tbr is Tbrain of the sea star Patiria miniata (Pm) or the sea urchin Strongylocentrotus purpuratus (Sp); higher = stronger binding preference; most listed sequences are background and not binding sites
# Conditions: the construct has about 5 more residues each side
# In short: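 Universal Agilent oligonucleotide arrays, made double-stranded by primer extension, were incubated with 200 nM GST-fused Tbr T-box DNA-binding domain in PBS (pH 7.5). The protein was expressed in BL21 E. coli at 20 °C and purified by glutathione affinity chromatography. After scanning and quantification, the Universal PBM Analysis Suite assigned an enrichment E-score to each ungapped 8-mer, averaged over duplicate arrays.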
row,Sequence,PBM E-score of 8-mer
1,AGTAAGTA,-0.149 ± 0.064
2,AATCCGGG,-0.00925 ± 0.029
3,CTCTCCCC,-0.127 ± 0.018
4,CGTCACGA,0.0777 ± 0.0028
5,AGGCACTC,0.0266 ± 0.06
6,CGGCTACA,-0.0468 ± 0.08
7,GCTTTTCA,0.212 ± 0.1
8,AATAGATA,-0.108 ± 0.032
9,AATGTTGT,0.191 ± 0.021
10,GTCACGTA,0.258 ± 0.044
11,CTCGCGAG,0.282 ± 0.025
12,ACTGGTTC,-0.13 ± 0.048
13,CCGCTGCG,-0.0153 ± 0.031
14,GGAGCCAC,-0.115 ± 0.021
15,ACTATTAT,-0.056 ± 0.033
16,ATGGTCTC,-0.144 ± 0.065
17,ATCGAGCA,-0.207 ± 0.06
18,CAAATGGG,-0.0564 ± 0.029
19,CGCAGGCA,-0.12 ± 0.027
20,ATACGTAA,-0.0111 ± 0.035
21,CCAACCAG,-0.149 ± 0.0091
22,CACGCCGA,0.131 ± 0.054

row,Sequence,PBM E-score of 8-mer
1,CTCTCTAC,-0.115 ± 0.064
2,CCGACACG,0.261 ± 0.013
3,ATGGGTGA,0.153 ± 0.043
4,GTTCCACA,0.0935 ± 0.091
5,GGGCACCA,-0.125 ± 0.059
6,CGGTCGCA,0.242 ± 0.0082
7,AAAAAATA,0.0569 ± 0.096
8,AGTTCTCA,0.335 ± 0.02
9,TATACCAA,0.0681 ± 0.037
10,CGGCGAAG,-0.192 ± 0.074
11,GTATTGAA,-0.0973 ± 0.063
12,TCTGGCAA,-0.0682 ± 0.078
13,GCTATCAA,0.0124 ± 0.05
14,CGCGCGTA,0.262 ± 0.015
15,AACAAATC,0.198 ± 0.045
16,GTCTACCA,0.00932 ± 0.025
17,TGTCTCAA,0.0166 ± 0.065
18,AGGTTATG,0.0583 ± 0.03
19,AGCTCGAT,-0.115 ± 0.017
20,GATCTGGA,-0.112 ± 0.034
21,GAAGCTAA,0.0225 ± 0.034
22,CTGTAAAA,0.0314 ± 0.081

row,Sequence,PBM E-score of 8-mer
1,GCTACTCC,-0.051 ± 0.068
2,ACAGTATA,-0.0828 ± 0.011
3,GGCATCTA,-0.0946 ± 0.018
4,GGACGTCA,-0.154 ± 0.061
5,ACAAACTA,-0.094 ± 0.026
6,ATTCTTAG,-0.347 ± 0.09
7,ACACCCTG,0.426 ± 0.026
8,CCCCCGTC,-0.178 ± 0.1
9,AATTCTCG,0.154 ± 0.0096
10,GGCATGAA,-0.0787 ± 0.006
11,AGAACGCC,-0.012 ± 0.039
12,AATGTAAT,-0.138 ± 0.0033
13,CCGCGTCC,0.0682 ± 0.093
14,AATGCAAA,-0.1 ± 0.028
15,GATTAACC,-0.0885 ± 0.017
16,AGAGTCCG,-0.217 ± 0.034
17,ACCTTGTC,0.233 ± 0.026
18,AGAGTTCC,-0.2201 ± 0.00095
19,ACTCCGTG,-0.123 ± 0.0086
20,GATATACA,-0.0535 ± 0.015
21,CTATGCCC,-0.353 ± 0.066
22,ATTACGCA,0.0306 ± 0.061

row,Sequence,PBM E-score of 8-mer
1,AAACTGGG,-0.0921 ± 0.02
2,GACCATCC,-0.242 ± 0.023
3,CGAGGTCC,-0.166 ± 0.06
4,AAACCTCT,-0.362 ± 0.051
5,ATTCCATG,0.039 ± 0.036
6,CTCCTAAG,-0.218 ± 0.056
7,GGGTGATA,0.368 ± 0.0085
8,CCGATAAA,0.0411 ± 0.039
9,CACAGACA,0.0252 ± 0.1
10,ATGCATTG,-0.113 ± 0.082
11,AGGGGCCG,0.00124 ± 0.011
12,CAGATGGA,-0.078 ± 0.026
13,CGCGATAA,0.343 ± 0.027
14,AACAGGTC,0.14 ± 0.036
15,ATGAAAAC,-0.268 ± 0.056
16,TGACAGAA,0.00962 ± 0.028
17,ACTACACA,-0.0102 ± 0.037
18,ATGTCTGC,-0.0513 ± 0.028
19,GCACTATA,-0.0181 ± 0.0023
20,AACGACCC,-0.0732 ± 0.075
